Data taken from ChEMBL document CHEMBL4888484, “Replenishing the malaria drug discovery pipeline: Screening and hit evaluation of the MMV Hit Generation Library 1 (HGL1) against asexual blood stage Plasmodium falciparum ,using a nano luciferase reporter read-out” (2022).
In all, about 150,000 compounds went through this assay and about 540 (0.36%) showed an effect of 50% or more. The list shows a part of the results.

These compounds were tested on Plasmodium falciparum (assay: Primary screen in NF54 nanoGlo assay, in single point, at 2uM, 72h; a lower Z score goes with more inhibition). Conditions: timepoint 72 hour.
Type: functional, Erythrocyte

SMILES	% Inhibition [%]	Z score
CCS(=O)(=O)N[C@@H](C)Cc1ccccc1Br	-11	1.16
COc1ccc(Nc2ncc(C#N)c(Nc3ccccc3)c2C#N)cc1	-4	0.55
CCCC(CCC)NC(=O)c1cncn1-c1ccc(-c2cc(C(F)(F)F)cc(C(F)(F)F)c2)cc1	-16	1.63
Cc1nn(C)c2nc(N[C@@H](C)Cn3cncn3)sc12	-24	2.62
CC(C)(C)NS(=O)(=O)c1cnc(NS(=O)(=O)c2ccccc2)s1	0	0.07
COCc1nc(C)c(C(=O)OCC(C)(C)N2CCNC2=O)s1	-5	0.63
N#Cc1cc(C(=O)NC23CCC(C(F)(F)F)(CC2)CC3)c[nH]1	-6	1.13
CN1[C@@H](c2ccc(Cl)cc2)[C@@H](C(=O)NCc2cccnc2)C[C@@]1(C)C(=O)O	-1	0.25
Cc1ccc(CNC(=O)c2cc(-c3cccc4ccccc34)[nH]n2)cc1	33	-3.77
O=C([C@H]1CCS(=O)(=O)C1)N(Cc1ccc(Br)cc1)c1ccc(F)cc1F	29	-3.29
CCn1c(-n2nc(C)nc2[C@H]2CCS(=O)(=O)C2)nc2ccccc21	4	-0.76
Cc1cc(N2CC[C@@]3(CCCOC3)C2)nc(C(C)C)n1	-6	0.76
Cc1ccc(C(=O)NCC2(N3CCN(C)CC3)CCCC2)n1C	-1	0.12
CCOC(=O)c1c(C)[nH]c(C(=O)N2CCC(CO)(Cc3ccccc3)CC2)c1C	-13	2.39
CCOc1nc2cc(NC(=O)CC#N)ccc2o1	-4	0.66
O=C(NCCc1nnc2n1CCCC2)c1ccc(Cl)cn1	-6	0.58
C[C@H](NC(=O)c1ccc(Br)cc1)C(=O)NCc1ccc(S(N)(=O)=O)cc1	0	-0.05
N#Cc1nc(C2CC2)oc1N1CCN(C(=O)COC2CCCC2)CC1	2	-0.21
CC(=O)Nc1nc(CC(=O)N(Cc2cccc(C)c2)C(C)C)n[nH]1	5	-0.64
CCN(CC)C(=O)C1CCN(c2nc3nonc3nc2NC2CCCC2)CC1	-3	0.61
OC1CCN(Cc2ccc(CNc3ncccc3Cl)cc2)CC1	-8	1.09
COC1CCC2OCCN(Cc3c(F)cccc3F)C2C1 (stereo unspecified)	-3	0.28
COc1ccc(S(=O)(=O)NC[C@H]2O[C@@H](CO)[C@@H](O)[C@H]2N2CCN(c3ccccn3)CC2)cc1	31	-3.46
